Measurements taken from patent publication US9890133B2 (priority 2011, dated 2018).
Values after ≈ are worked out from the molar mass of the structure shown. Like-named read-outs stand apart in the source and are kept apart here.

How the values were obtained:
Coxsackie B3 = experiment: microbe, parasite or virus in culture; details: Enterovirus B, B3, read-out: Coxsackie B3 EC50
Rhinovirus = experiment: microbe, parasite or virus in culture; assay type: cell-based; details: Enterovirus
Coxsackie B1 = experiment: organism not typed; details: read-out: Coxsackie B1 EC50
[1] = HRV14, read-out: Rhino HRV14 EC50
[2] = HRV21, read-out: Rhino HRV21 EC50
[3] = HRV71, read-out: Rhino HRV71 EC50

CC(C)c1ccc2c(c1)OC1(O)c3cccc(N)c3C(=O)C21NC(=O)c1cc2ccccc2cn1 (stereo not drawn) [Example 248, N-(1-Amino-4b-hydroxy-7-isopropyl-10-oxo-9b,10-dihydro-4bH-indeno[1,2-b]benzofuran-9b-yl)isoquinoline-3-carboxamide]
EC50 (Coxsackie B3): < 0.01 µg/mL
EC50 (Rhinovirus; [1]): < 0.01 µg/mL
EC50 (Coxsackie B1): < 0.01 µg/mL

Cc1cc(C(=O)NC23C(=O)c4c(N)cccc4C2(O)Oc2cc(C(C)C)ccc23)ccn1 (stereo not drawn) [Example 249, N-(1-Amino-4b-hydroxy-7-isopropyl-10-oxo-9b,10-dihydro-4bH-indeno[1,2-b]benzofuran-9b-yl)-2-methylisonicotinamide]
EC50 (Coxsackie B3): < 0.01 µg/mL
EC50 (Rhinovirus; [1]): < 0.01 µg/mL
EC50 (Rhinovirus; [2]): < 1 µg/mL
EC50 (Rhinovirus; [3]): < 1 µg/mL
EC50 (Coxsackie B1): < 0.01 µg/mL

CC(C)c1ccc2c(c1)OC1(O)c3cccc(N)c3C(=O)C21NC(=O)c1ccncc1F (stereo not drawn) [Example 250, N-(1-Amino-4b-hydroxy-7-isopropyl-10-oxo-9b,10-dihydro-4bH-indeno[1,2-b]benzofuran-9b-yl)-3-fluoroisonicotinamide]
EC50 (Coxsackie B3): < 0.01 µg/mL
EC50 (Rhinovirus; [1]): < 0.01 µg/mL
EC50 (Rhinovirus; [2]): < 1 µg/mL
EC50 (Rhinovirus; [3]): < 1 µg/mL
EC50 (Coxsackie B1): < 0.01 µg/mL

CC(C)c1ccc2c(c1)OC1(O)c3cccc(N)c3C(=O)C21NC(=O)c1ccncc1Cl (stereo not drawn) [Example 251, N-(1-Amino-4b-hydroxy-7-isopropyl-10-oxo-9b,10-dihydro-4bH-indeno[1,2-b]benzofuran-9b-yl)-3-chloroisonicotinamide]
EC50 (Coxsackie B3): < 0.01 µg/mL
EC50 (Rhinovirus; [1]): < 0.01 µg/mL
EC50 (Rhinovirus; [2]): < 1 µg/mL
EC50 (Coxsackie B1): < 0.01 µg/mL

CC(C)c1ccc2c(c1)OC1(O)c3cccc(N)c3C(=O)C21NC(=O)c1nccn1C (stereo not drawn) [Example 252, N-(1-Amino-4b-hydroxy-7-isopropyl-10-oxo-9b,10-dihydro-4bH-indeno[1,2-b]benzofuran-9b-yl)-1-methyl-1H-imidazole-2-carboxamide]
EC50 (Coxsackie B3): < 0.01 µg/mL
EC50 (Rhinovirus; [1]): < 0.01 µg/mL
EC50 (Coxsackie B1): < 0.01 µg/mL

CC(C)c1ccc2c(c1)OC1(O)c3cccc(N)c3C(=O)C21NC(=O)c1cccc[n+]1[O-] (stereo not drawn) [Example 253, 2-((1-Amino-4b-hydroxy-7-isopropyl-10-oxo-9b,10-dihydro-4bH-indeno[1,2-b]benzofuran-9b-yl)carbamoyl)pyridine 1-oxide]
EC50 (Coxsackie B3): < 0.01 µg/mL
EC50 (Rhinovirus; [1]): < 0.01 µg/mL
EC50 (Coxsackie B1): < 0.01 µg/mL

CC(C)c1ccc2c(c1)OC1(O)c3cccc(N)c3C(=O)C21NC(=O)c1cnccc1Cl (stereo not drawn) [Example 254, N-(1-Amino-4b-hydroxy-7-isopropyl-10-oxo-9b,10-dihydro-4bH-indeno[1,2-b]benzofuran-9b-yl)-4-chloronicotinamide]
EC50 (Coxsackie B3): < 0.01 µg/mL
EC50 (Rhinovirus; [1]): < 0.01 µg/mL
EC50 (Coxsackie B1): < 0.01 µg/mL

CC(C)c1ccc2c(c1)OC1(O)c3cccc(N)c3C(=O)C21NC(=O)c1cncc(F)c1 (stereo not drawn) [Example 255, N-(1-Amino-4b-hydroxy-7-isopropyl-10-oxo-9b,10-dihydro-4bH-indeno[1,2-b]benzofuran-9b-yl)-5-fluoronicotinamide]
EC50 (Coxsackie B3): < 0.01 µg/mL
EC50 (Rhinovirus; [1]): < 0.01 µg/mL
EC50 (Rhinovirus; [2]): < 1 µg/mL
EC50 (Rhinovirus; [3]): < 1 µg/mL
EC50 (Coxsackie B1): < 0.01 µg/mL

CC(C)c1ccc2c(c1)OC1(O)c3cccc(N)c3C(=O)C21NC(=O)c1cncc(O)c1 (stereo not drawn) [Example 256, N-(1-Amino-4b-hydroxy-7-isopropyl-10-oxo-9b,10-dihydro-4bH-indeno[1,2-b]benzofuran-9b-yl)-5-hydroxynicotinamide]
EC50 (Coxsackie B3): < 0.01 µg/mL
EC50 (Rhinovirus; [1]): < 0.01 µg/mL
EC50 (Rhinovirus; [2]): < 1 µg/mL
EC50 (Rhinovirus; [3]): < 1 µg/mL
EC50 (Coxsackie B1): < 0.01 µg/mL

CC(C)c1ccc2c(c1)OC1(O)c3cccc(N)c3C(=O)C21NC(=O)c1ncccc1O (stereo not drawn) [Example 257, N-(1-Amino-4b-hydroxy-7-isopropyl-10-oxo-9b,10-dihydro-4bH-indeno[1,2-b]benzofuran-9b-yl)-3-hydroxypicolinamide]
EC50 (Coxsackie B3): < 0.01 µg/mL
EC50 (Rhinovirus; [1]): < 0.01 µg/mL
EC50 (Coxsackie B1): < 0.01 µg/mL

Cc1ccncc1C(=O)NC12C(=O)c3c(N)cccc3C1(O)Oc1cc(C(C)C)ccc12 (stereo not drawn) [Example 258, N-(1-Amino-4b-hydroxy-7-isopropyl-10-oxo-9b,10-dihydro-4bH-indeno[1,2-b]benzofuran-9b-yl)-4-methylnicotinamide]
EC50 (Coxsackie B3): < 0.01 µg/mL
EC50 (Rhinovirus; [1]): < 0.01 µg/mL
EC50 (Rhinovirus; [2]): < 1 µg/mL
EC50 (Coxsackie B1): < 0.01 µg/mL

Cc1cncc(C(=O)NC23C(=O)c4c(N)cccc4C2(O)Oc2cc(C(C)C)ccc23)c1 (stereo not drawn) [Example 259, N-(1-Amino-4b-hydroxy-7-isopropyl-10-oxo-9b,10-dihydro-4bH-indeno[1,2-b]benzofuran-9b-yl)-5-methylnicotinamide]
EC50 (Coxsackie B3): < 0.01 µg/mL
EC50 (Rhinovirus; [1]): < 0.01 µg/mL
EC50 (Rhinovirus; [2]): < 1 µg/mL
EC50 (Rhinovirus; [3]): < 1 µg/mL
EC50 (Coxsackie B1): < 0.01 µg/mL

Cc1cc2c(cc1C)C1(NC(=O)c3cccnc3)C(=O)c3c(N)cccc3C1(O)O2 (stereo not drawn) [Example 260, N-(1-Amino-4b-hydroxy-7,8-dimethyl-10-oxo-9b,10-dihydro-4bH-indeno[1,2-b]benzofuran-9b-yl)nicotinamide]
EC50 (Coxsackie B3): < 0.01 µg/mL
EC50 (Rhinovirus; [1]): < 0.01 µg/mL
EC50 (Coxsackie B1): < 0.01 µg/mL

COc1cncc(C(=O)NC23C(=O)c4c(N)cccc4C2(O)Oc2cc(C(C)C)ccc23)c1 (stereo not drawn) [Example 261, N-(1-Amino-4b-hydroxy-7-isopropyl-10-oxo-9b,10-dihydro-4bH-indeno[1,2-b]benzofuran-9b-yl)-5-methoxynicotinamide]
EC50 (Coxsackie B3): < 0.01 µg/mL
EC50 (Rhinovirus; [1]): < 0.01 µg/mL
EC50 (Rhinovirus; [2]): < 1 µg/mL
EC50 (Rhinovirus; [3]): < 1 µg/mL
EC50 (Coxsackie B1): < 0.01 µg/mL

Cc1cc2c(cc1C)C1(NC(=O)c3ccc4ncccc4c3)C(=O)c3c(N)cccc3C1(O)O2 (stereo not drawn) [Example 262, N-(1-Amino-4b-hydroxy-7,8-dimethyl-10-oxo-9b,10-dihydro-4bH-indeno[1,2-b]benzofuran-9b-yl)quinoline-6-carboxamide]
EC50 (Coxsackie B3): < 0.01 µg/mL
EC50 (Rhinovirus; [1]): < 0.01 µg/mL
EC50 (Coxsackie B1): < 0.01 µg/mL

CC(C)c1ccc2c(c1)OC1(O)c3cccc(N)c3C(=O)C21NC(=O)c1ccc2ccccc2n1 (stereo not drawn) [Example 263]
EC50 (Coxsackie B3): < 0.01 µg/mL
EC50 (Rhinovirus; [1]): < 0.01 µg/mL
EC50 (Coxsackie B1): < 0.01 µg/mL

CC(C)c1ccc2c(c1)OC1(O)c3cccc(N)c3C(=O)C21NC(=O)c1sc2ccccc2c1Br (stereo not drawn) [Example 264]
EC50 (Coxsackie B3): 0.035 µg/mL (≈ 0.0637 µM)
EC50 (Rhinovirus; [1]): 0.034 µg/mL (≈ 0.0619 µM)
EC50 (Coxsackie B1): 0.011 µg/mL (≈ 0.02 µM)

CC(C)c1ccc2c(c1)OC1(O)c3cccc(N)c3C(=O)C21NC(=O)c1cc2ccccc2[nH]1 (stereo not drawn) [Example 265]
EC50 (Coxsackie B3): < 0.01 µg/mL
EC50 (Rhinovirus; [1]): < 0.01 µg/mL
EC50 (Rhinovirus; [2]): < 1 µg/mL
EC50 (Rhinovirus; [3]): < 1 µg/mL
EC50 (Coxsackie B1): < 0.01 µg/mL

CC(C)c1ccc2c(c1)OC1(O)c3cccc(N)c3C(=O)C21NC(=O)c1nccc2ccccc12 (stereo not drawn) [Example 266, N-(1-Amino-4b-hydroxy-7-isopropyl-10-oxo-9b,10-dihydro-4bH-benzo[d]indeno[1,2-b]furan-9b-yl)isoquinoline-1-carboxamide]
EC50 (Coxsackie B3): < 0.01 µg/mL
EC50 (Rhinovirus; [1]): < 0.01 µg/mL
EC50 (Coxsackie B1): < 0.01 µg/mL

COc1c(C(=O)NC23C(=O)c4c(N)cccc4C2(O)Oc2cc(C(C)C)ccc23)cnc2ccc(F)cc12 (stereo not drawn) [Example 267, N-(1-Amino-4b-hydroxy-7-isopropyl-10-oxo-9b,10-dihydro-4bH-indeno[1,2-b]benzofuran-9b-yl)-6-fluoro-4-methoxyquinoline-3-carboxamide]
EC50 (Coxsackie B3): < 0.01 µg/mL
EC50 (Rhinovirus; [1]): 0.012 µg/mL (≈ 0.0234 µM)
EC50 (Rhinovirus; [2]): < 1 µg/mL
EC50 (Rhinovirus; [3]): < 1.1 µg/mL
EC50 (Coxsackie B1): < 0.01 µg/mL
